From PMC4180639
These are yes or no findings as the source states them, for the method shown. For some of these results: In cells and extracts the contact can be indirect. Some results given as binding are weak or reduced against the parent protein; the word gives no strength. Each block holds one molecule with its values, some of them ahead of it.

By UniProt entry, the sequences of proteins in these tests, tags left out. Where a name states a change or a piece, a line headed by the entry shows the natural chain unless it says otherwise. Chains listed by the source or under a name are the forms on record and can include a tag or linker. Residues count along the entry.
pLexA-CRU (amino-acid residues 4105–4633) of Ahnak (Q09666, residues 4105-4633): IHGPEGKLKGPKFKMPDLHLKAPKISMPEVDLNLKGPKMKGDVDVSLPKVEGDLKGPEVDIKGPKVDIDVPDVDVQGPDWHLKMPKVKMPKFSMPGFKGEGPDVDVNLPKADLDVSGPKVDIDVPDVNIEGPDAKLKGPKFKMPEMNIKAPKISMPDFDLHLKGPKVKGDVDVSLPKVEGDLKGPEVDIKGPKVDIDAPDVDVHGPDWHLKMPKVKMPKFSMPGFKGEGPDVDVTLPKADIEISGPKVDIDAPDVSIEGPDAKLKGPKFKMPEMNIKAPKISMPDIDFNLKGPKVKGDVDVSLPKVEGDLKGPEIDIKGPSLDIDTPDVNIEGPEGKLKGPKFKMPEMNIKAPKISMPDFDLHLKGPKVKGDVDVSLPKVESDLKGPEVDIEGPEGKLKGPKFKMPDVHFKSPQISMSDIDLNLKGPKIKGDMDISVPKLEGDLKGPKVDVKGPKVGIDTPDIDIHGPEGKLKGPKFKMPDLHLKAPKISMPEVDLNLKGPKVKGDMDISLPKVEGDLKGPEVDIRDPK
GFP-tagged mutant 4CRU of Ahnak (valine 4607 to methionine) (Q09666, form named): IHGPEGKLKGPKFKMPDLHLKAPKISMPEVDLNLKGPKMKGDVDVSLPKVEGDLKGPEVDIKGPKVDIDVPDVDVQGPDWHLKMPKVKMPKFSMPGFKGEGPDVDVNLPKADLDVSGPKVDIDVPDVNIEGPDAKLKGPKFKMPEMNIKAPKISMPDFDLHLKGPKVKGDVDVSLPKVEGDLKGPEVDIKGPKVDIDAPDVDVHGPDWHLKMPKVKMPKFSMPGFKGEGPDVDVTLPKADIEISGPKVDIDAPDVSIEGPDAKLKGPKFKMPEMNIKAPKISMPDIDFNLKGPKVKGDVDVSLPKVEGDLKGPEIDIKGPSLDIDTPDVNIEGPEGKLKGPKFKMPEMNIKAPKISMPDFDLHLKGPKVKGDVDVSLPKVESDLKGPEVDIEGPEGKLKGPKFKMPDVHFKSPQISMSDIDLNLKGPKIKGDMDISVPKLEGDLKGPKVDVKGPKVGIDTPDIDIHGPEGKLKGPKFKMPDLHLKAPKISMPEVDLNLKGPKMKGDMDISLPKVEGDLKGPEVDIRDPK
UniProt Q8BUN5: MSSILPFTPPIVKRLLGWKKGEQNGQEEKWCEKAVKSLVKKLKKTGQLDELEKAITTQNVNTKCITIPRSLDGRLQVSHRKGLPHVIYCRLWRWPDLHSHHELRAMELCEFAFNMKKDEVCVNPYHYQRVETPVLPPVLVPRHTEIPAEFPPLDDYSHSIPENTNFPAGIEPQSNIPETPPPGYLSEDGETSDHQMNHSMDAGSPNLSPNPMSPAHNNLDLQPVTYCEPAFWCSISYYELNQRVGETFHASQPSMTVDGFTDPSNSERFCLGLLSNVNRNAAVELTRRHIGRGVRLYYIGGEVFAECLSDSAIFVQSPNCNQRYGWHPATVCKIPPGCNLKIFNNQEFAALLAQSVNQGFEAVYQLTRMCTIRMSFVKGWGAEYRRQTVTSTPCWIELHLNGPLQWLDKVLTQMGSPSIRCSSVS
UniProt O15105: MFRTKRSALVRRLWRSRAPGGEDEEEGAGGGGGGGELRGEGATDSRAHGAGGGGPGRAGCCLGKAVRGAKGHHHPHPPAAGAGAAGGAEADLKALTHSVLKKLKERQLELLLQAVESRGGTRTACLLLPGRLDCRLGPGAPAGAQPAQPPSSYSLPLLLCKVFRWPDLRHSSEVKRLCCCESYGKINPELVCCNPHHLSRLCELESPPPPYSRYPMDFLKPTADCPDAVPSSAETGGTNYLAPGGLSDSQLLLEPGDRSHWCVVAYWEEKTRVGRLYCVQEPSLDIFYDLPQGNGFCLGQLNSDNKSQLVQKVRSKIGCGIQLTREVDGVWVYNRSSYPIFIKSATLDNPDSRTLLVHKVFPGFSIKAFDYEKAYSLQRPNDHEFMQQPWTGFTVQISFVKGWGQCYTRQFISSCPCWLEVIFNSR
UniProt Q15797: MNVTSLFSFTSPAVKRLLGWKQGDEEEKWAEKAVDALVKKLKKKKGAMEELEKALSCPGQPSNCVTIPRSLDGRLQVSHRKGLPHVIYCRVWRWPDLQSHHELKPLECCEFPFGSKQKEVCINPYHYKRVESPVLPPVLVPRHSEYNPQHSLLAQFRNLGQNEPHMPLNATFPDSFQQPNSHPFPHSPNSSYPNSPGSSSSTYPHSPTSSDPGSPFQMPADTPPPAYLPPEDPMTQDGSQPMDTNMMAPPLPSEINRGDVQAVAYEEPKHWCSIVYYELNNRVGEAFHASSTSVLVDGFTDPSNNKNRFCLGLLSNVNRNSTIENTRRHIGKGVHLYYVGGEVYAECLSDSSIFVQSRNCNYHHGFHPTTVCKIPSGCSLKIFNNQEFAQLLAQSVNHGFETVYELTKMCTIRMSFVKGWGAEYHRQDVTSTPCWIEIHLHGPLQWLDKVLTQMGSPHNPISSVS
UniProt P84022: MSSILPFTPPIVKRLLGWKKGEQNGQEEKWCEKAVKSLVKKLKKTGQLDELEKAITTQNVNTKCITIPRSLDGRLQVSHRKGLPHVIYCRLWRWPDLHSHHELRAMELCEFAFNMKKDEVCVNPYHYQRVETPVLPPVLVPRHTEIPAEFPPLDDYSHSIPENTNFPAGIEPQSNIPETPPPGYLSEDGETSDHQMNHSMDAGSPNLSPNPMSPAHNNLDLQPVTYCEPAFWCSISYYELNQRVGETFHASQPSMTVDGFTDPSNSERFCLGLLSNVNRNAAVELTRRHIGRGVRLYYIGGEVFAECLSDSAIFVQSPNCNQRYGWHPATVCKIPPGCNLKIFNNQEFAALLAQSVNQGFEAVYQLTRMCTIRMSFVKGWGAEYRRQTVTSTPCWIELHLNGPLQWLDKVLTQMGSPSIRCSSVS
UniProt Q15796: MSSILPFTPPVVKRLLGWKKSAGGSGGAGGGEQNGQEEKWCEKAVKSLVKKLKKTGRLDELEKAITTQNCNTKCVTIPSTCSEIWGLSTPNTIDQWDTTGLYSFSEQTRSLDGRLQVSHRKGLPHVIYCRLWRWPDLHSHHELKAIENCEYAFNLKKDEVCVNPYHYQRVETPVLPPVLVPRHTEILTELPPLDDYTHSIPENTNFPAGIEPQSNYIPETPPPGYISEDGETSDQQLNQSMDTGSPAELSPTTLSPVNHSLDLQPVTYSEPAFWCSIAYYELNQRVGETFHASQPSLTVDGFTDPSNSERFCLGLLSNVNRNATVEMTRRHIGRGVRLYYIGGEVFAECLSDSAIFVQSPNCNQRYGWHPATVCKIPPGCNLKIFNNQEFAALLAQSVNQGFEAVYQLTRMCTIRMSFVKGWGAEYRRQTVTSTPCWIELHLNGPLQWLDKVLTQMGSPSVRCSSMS
UniProt Q13485: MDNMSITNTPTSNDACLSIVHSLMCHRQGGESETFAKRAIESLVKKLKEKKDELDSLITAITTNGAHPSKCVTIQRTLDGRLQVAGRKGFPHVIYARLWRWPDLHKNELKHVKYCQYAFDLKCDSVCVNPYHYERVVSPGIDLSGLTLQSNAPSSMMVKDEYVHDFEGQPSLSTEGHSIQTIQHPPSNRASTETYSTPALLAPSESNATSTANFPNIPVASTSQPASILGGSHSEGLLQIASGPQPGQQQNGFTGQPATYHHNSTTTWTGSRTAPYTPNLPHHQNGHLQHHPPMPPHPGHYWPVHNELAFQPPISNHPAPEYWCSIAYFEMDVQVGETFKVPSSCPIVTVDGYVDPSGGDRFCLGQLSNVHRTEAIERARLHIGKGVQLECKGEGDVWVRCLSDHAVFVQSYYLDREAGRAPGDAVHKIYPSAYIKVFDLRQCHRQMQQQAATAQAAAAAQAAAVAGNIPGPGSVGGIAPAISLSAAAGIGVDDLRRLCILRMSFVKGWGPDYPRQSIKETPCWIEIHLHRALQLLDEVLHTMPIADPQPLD
UniProt P30280: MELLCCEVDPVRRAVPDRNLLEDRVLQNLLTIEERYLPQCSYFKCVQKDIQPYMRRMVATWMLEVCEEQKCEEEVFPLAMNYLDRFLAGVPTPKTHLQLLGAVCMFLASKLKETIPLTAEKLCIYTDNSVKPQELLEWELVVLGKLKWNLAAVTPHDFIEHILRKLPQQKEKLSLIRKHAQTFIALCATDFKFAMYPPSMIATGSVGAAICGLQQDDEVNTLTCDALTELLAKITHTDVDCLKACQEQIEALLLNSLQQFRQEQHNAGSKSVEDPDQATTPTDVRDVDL
UniProt P46414: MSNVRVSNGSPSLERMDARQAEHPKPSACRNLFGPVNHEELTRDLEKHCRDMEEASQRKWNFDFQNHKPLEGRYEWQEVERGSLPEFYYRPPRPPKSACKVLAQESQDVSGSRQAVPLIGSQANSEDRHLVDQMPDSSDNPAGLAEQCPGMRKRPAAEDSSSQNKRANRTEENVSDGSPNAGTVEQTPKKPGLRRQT

What was measured:
[1] = molecular target: GFP-tagged mutant 4CRU of Ahnak (valine 4607 to methionine) (human) (UniProt Q09666); assay: co-IP; COS7 cells co-transfected with GFP-tagged wild-type or mutant 4CRU and Myc-Smad3 (precipitated with antibody against GFP) or HA-Smad7 (precipitated with antibody against HA)
[2] = molecular target: GFP-tagged wild-type 4CRU of Ahnak (human) (UniProt Q09666); assay: as above
[3] = molecular target: endogenous Smad3 (NIH3T3 cells) (mouse (endogenous in NIH3T3)) (UniProt Q8BUN5); assay: co-IP; NIH3T3 cells transfected with pcDNA3-HA-4CRU of Ahnak, without or with 10 ng/ml TGFβ; lysates precipitated with anti-Smad3 antibody (endogenous Smad3)
HA-Smad7 [4] = molecular target: HA-Smad7 (UniProt O15105); assay: co-IP; COS7 cells co-transfected with GFP-tagged wild-type or mutant 4CRU and Myc-Smad3 (precipitated with antibody against GFP) or HA-Smad7 (precipitated with antibody against HA)
[5] = molecular target: pLexA-CRU (amino-acid residues 4105–4633) of Ahnak (human) (UniProt Q09666); assay: two-hybrid; directed test in EGY48/p80-lacZ yeast; pLexA-CRU (4105–4633) of Ahnak with Smad constructs; growth on SD/Gal/Raf/Ura-Trp-His-Leu- plates (Leu2 reporter)
[6] = molecular target: Flag-tagged Smad1 (pCS4-3Flag-Smad1) (UniProt Q15797); assay: co-IP; COS7 cells transfected with HA-4CRU of Ahnak and Flag- or Myc-tagged Smads; lysates precipitated with antibody to Flag or Myc, blotted with antibody to HA
[7] = molecular target: Myc-tagged Smad3 (pCS-Myc-Smad3) (UniProt P84022); assay: as above
[8] = molecular target: Flag-tagged Smad2 (pCS4-3Flag-Smad2) (UniProt Q15796); assay: as above
[9] = molecular target: Flag-tagged Smad4 (pCS2-Flag-Smad4) (UniProt Q13485); assay: as above
HA-Smad7 [10] = molecular target: HA-Smad7 (UniProt O15105); assay: co-IP; COS7 cells transfected with Flag-4CRU of Ahnak and HA-Smad7; serum starved 16 h, without or with 10 ng/ml TGFβ; precipitated with antibody to HA, blotted for Flag
[11] = molecular target: T1, CDK4 (endogenous, NIH3T3 cells) (mouse (endogenous in NIH3T3)) (UniProt P30285); assay: co-IP; endogenous proteins; lysates of NIH3T3 and NIH3T3/Ahnak cells precipitated with antibodies against cyclin D2 or CDK4, immunoblot
T1 sequence: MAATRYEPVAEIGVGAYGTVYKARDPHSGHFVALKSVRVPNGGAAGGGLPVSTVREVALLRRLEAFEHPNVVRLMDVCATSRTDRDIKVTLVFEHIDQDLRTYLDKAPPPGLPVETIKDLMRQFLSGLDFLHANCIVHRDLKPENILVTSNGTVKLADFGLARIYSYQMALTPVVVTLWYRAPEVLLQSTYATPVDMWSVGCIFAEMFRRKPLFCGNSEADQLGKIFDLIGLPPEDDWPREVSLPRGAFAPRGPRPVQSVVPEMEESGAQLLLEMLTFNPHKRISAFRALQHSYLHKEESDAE

[12] = molecular target: cyclin D2 (endogenous, NIH3T3 cells) (mouse (endogenous in NIH3T3)) (UniProt P30280); assay: as above

Molecule: Myc-tagged Smad3 (pCS-Myc-Smad3) (from UniProt P84022 1-425)
binding [1]: binds | binding [2]: binds

Molecule: HA-tagged 4CRU of Ahnak (pcDNA3-HA-4CRU) in NIH3T3 cells (from UniProt Q09666 4105-4633) (domain or fragment)
binding [3]: binds

Molecule: GFP-tagged mutant 4CRU of Ahnak (valine 4607 to methionine) (from UniProt Q09666 4105-4633) (domain or fragment)
binding (HA-Smad7 [4]): binds

Molecule: MH2 domain (amino-acid residues 269–468) of Smad2, yeast two-hybrid construct (from UniProt Q15796 269-467) (domain or fragment)
binding [5]: binds

Molecule: Smad1 (yeast two-hybrid construct) (from UniProt Q15797 1-465)
binding [5]: binds

Molecule: p27^Kip1 (endogenous, NIH3T3 cells) (from UniProt P46414 1-197)
binding [11]: binds

Molecule: linker region (amino-acid residues 180–273) of Smad2, yeast two-hybrid construct (from UniProt Q15796 180-273) (domain or fragment)
binding [5]: no binding

B1: CDK4 (endogenous, NIH3T3 cells) (enzyme, UniProt P30285 1-303)
chain: MAATRYEPVAEIGVGAYGTVYKARDPHSGHFVALKSVRVPNGGAAGGGLPVSTVREVALLRRLEAFEHPNVVRLMDVCATSRTDRDIKVTLVFEHIDQDLRTYLDKAPPPGLPVETIKDLMRQFLSGLDFLHANCIVHRDLKPENILVTSNGTVKLADFGLARIYSYQMALTPVVVTLWYRAPEVLLQSTYATPVDMWSVGCIFAEMFRRKPLFCGNSEADQLGKIFDLIGLPPEDDWPREVSLPRGAFAPRGPRPVQSVVPEMEESGAQLLLEMLTFNPHKRISAFRALQHSYLHKEESDAE
binding [12]: binds

B2: p21^Waf/Cip (endogenous, NIH3T3 cells) (protein, UniProt P39689 1-159)
chain: MSNPGDVRPVPHRSKVCRCLFGPVDSEQLRRDCDALMAGCLQEARERWNFDFVTETPLEGNFVWERVRSLGLPKVYLSPGSRSRDDLGGDKRPSTSSALLQGPAPEDHVALSLSCTLVSERPEDSPGGPGTSQGRKRRQTSLTDFYHSKRRLVFCKRKP
binding [11]: binds

Continued, values first:

binding [6]: binds | binding [7]: binds | binding [8]: binds | binding [9]: binds
Molecule: HA-tagged 4CRU of Ahnak (pcDNA3-HA-4CRU) in COS7 cells (from UniProt Q09666 4105-4633) (domain or fragment)

binding [5]: no binding
Molecule: MH1 domain (amino-acid residues 2–183) of Smad2, yeast two-hybrid construct (from UniProt Q15796 2-183) (domain or fragment)

binding (HA-Smad7 [10]): binds
Molecule: Flag-4CRU of Ahnak (from UniProt Q09666 4105-4633) (domain or fragment)

binding [5]: binds
Molecule: Smad3 (yeast two-hybrid construct) (from UniProt P84022 1-425)

binding [5]: binds
Molecule: full length Smad2 (amino-acid residues 2–468), yeast two-hybrid construct (from UniProt Q15796 2-467)

binding (HA-Smad7 [4]): binds
Molecule: GFP-tagged wild-type 4CRU of Ahnak (from UniProt Q09666 4105-4633) (domain or fragment)
